The supplement of paper PMC4967469
Lines with a small IC50 respond at low doses; where the fit passes the top or lowest dose, that dose stands as a limit. AUC is the area under the same curve over the 256-fold range up to the top dose, as a fraction; values near 1 show little effect. For part of these data: The top dose, if marked as inferred, was derived from the fitted curves, not read from the paper.

Tests used:
Assay in all cases: Viability of human cancer cell lines after 72 h of drug (GDSC screen)
[1] = compound: CN(C)C/C=C/C(=O)Nc1ccc(C(=O)Nc2cccc(Nc3nccc(-c4cccnc4)n3)c2)cc1 [ZG-10]; settings: top dose 10 µM; top dose inferred
Procedure: (§1)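 Human cancer cell lines in 384-well plates, medium with 10% serum, drug for 72 h over a 256-fold dose range (nine 2-fold or five 4-fold steps up to the top dose). Adherent lines were fixed and stained with the nucleic acid dye Syto60, suspension lines read with resazurin; signal relative to control wells, capped at 0 and 100%. One two-parameter sigmoid per drug and line, fitted in a mixed model over all curves with the slope shared within a line.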

[2] = compound: Cn1nnc2c(C(N)=O)ncn2c1=O [Temozolomide]; settings: top dose 30 µM
Procedure: as §1

[3] = compound: O=C(NOCC1CC1)c1ccc(F)c(F)c1Nc1ccc(I)cc1Cl [CI-1040]; settings: top dose 10 µM; top dose inferred
Procedure: as §1

[4] = compound: CN1CCc2c(c3ccccc3n2Cc2ccc(C(=O)NO)cc2)C1 [Tubastatin A]; settings: top dose 20 µM
Procedure: as §1

[5] = compound: COc1cc2c(Oc3ccc(NC(=O)C4(C(=O)Nc5ccc(F)cc5)CC4)cc3F)ccnc2cc1OCCCN1CCOCC1 [XL-880]; settings: top dose 5.12 µM; top dose inferred
Procedure: as §1

[6] = compound: Oc1ccc2ccccc2c1SSc1c(O)ccc2ccccc12 [IPA-3]; settings: top dose 32 µM; top dose inferred
Procedure: as §1

| Cell Line | AUC [1] | IC50 [1] [µM] | AUC [2] | IC50 [2] [µM] | AUC [3] | IC50 [3] [µM] | AUC [4] | IC50 [4] [µM] | AUC [5] | IC50 [5] [µM] | AUC [6] | IC50 [6] [µM] |
| --- | --- | --- | --- | --- | --- | --- | --- | --- | --- | --- | --- | --- |
| MKN7 (stomach, adherent) | 0.926 | > 10 | 0.981 | > 30 | 0.873 | > 10 | – | – | – | – | – | – |
| KATOIII (stomach, semi-adherent) | 0.693 | 2.06 | 0.986 | > 30 | 0.909 | > 10 | – | – | – | – | – | – |
| NCI-H929 (myeloma, suspension) | 0.605 | 1.16 | 0.985 | > 30 | 0.69 | 1.94 | – | – | – | – | – | – |
| NCI-H508 (large intestine, semi-adherent) | 0.722 | 4.19 | 0.96 | > 30 | 0.713 | 3.85 | – | – | – | – | – | – |
| H2804 (mesothelioma, adherent) | 0.765 | 4 | 0.984 | > 30 | – | – | 0.97 | > 20 | 0.796 | 2.68 | 0.907 | > 32 |
| SK-LU-1 (lung adenocarcinoma, adherent) | 0.833 | 9.11 | 0.938 | > 30 | – | – | 0.956 | > 20 | 0.734 | 1.81 | 0.718 | 9.94 |
| A673 (rhabdomyosarcoma, adherent) | 0.591 | 1.08 | 0.989 | > 30 | – | – | 0.984 | > 20 | 0.784 | 1.94 | 0.99 | > 32 |
| HCC-366 (non-small cell lung carcinoma, adherent) | 0.87 | > 10 | 0.986 | > 30 | – | – | – | – | – | – | – | – |
| HCT-116 (large intestine, adherent) | 0.67 | 1.81 | – | – | – | – | 0.9 | > 20 | 0.529 | 0.383 | 0.98 | > 32 |
| A549 (lung adenocarcinoma, adherent) | 0.825 | 7.05 | 0.967 | > 30 | 0.685 | 2.21 | – | – | – | – | – | – |
| NCI-N87 (stomach, adherent) | 0.718 | 3.45 | 0.976 | > 30 | 0.797 | 7.32 | – | – | – | – | – | – |
| T-24 (bladder, adherent) | 0.861 | 7.88 | 0.987 | > 30 | – | – | 0.974 | > 20 | 0.811 | 2.57 | 0.987 | > 32 |
| CL-34 (large intestine, adherent) | 0.782 | 4.64 | 0.979 | > 30 | 0.658 | 1.8 | – | – | – | – | – | – |
| NCC010 (kidney, adherent) | 0.823 | 6.44 | 0.983 | > 30 | 0.911 | > 10 | – | – | – | – | – | – |
| NCI-H2066 (small cell lung carcinoma, adherent) | 0.977 | > 10 | 0.975 | > 30 | – | – | – | – | – | – | – | – |
| A375 (melanoma, adherent) | 0.749 | 2.76 | – | – | – | – | 0.95 | > 20 | 0.57 | 0.48 | 0.855 | 18.7 |

| Cell Line | AUC [1] | IC50 [1] [µM] | AUC [2] | IC50 [2] [µM] | AUC [3] | IC50 [3] [µM] | AUC [4] | IC50 [4] [µM] | AUC [5] | IC50 [5] [µM] | AUC [6] | IC50 [6] [µM] |
| --- | --- | --- | --- | --- | --- | --- | --- | --- | --- | --- | --- | --- |
| H2803 (mesothelioma, adherent) | 0.965 | > 10 | 0.982 | > 30 | – | – | 0.938 | > 20 | 0.749 | 1.9 | 0.911 | > 32 |
| SK-MEL-28 (melanoma, adherent) | 0.718 | 2.54 | 0.976 | > 30 | – | – | 0.985 | > 20 | 0.73 | 1.42 | 0.893 | > 32 |
| NCI-H196 (small cell lung carcinoma, adherent) | 0.844 | 7.65 | 0.987 | > 30 | – | – | 0.975 | > 20 | 0.766 | 1.97 | 0.988 | > 32 |
| HT-29 (large intestine, adherent) | 0.888 | > 10 | 0.986 | > 30 | – | – | 0.976 | > 20 | – | – | 0.987 | > 32 |
| ZR-75-30 (breast, adherent) | 0.837 | > 10 | 0.981 | > 30 | 0.924 | > 10 | – | – | – | – | – | – |
| HT55 (large intestine, adherent) | 0.95 | > 10 | – | – | – | – | 0.989 | > 20 | 0.952 | > 5.12 | 0.987 | > 32 |
| VMRC-LCD (lung adenocarcinoma, adherent) | 0.714 | 2.23 | 0.987 | > 30 | 0.936 | > 10 | – | – | – | – | – | – |
| Hs940-T (melanoma, adherent) | 0.84 | 9.09 | 0.981 | > 30 | – | – | 0.983 | > 20 | 0.984 | > 5.12 | 0.758 | 13.4 |
| SW48 (large intestine, adherent) | 0.761 | 3.54 | 0.985 | > 30 | – | – | 0.974 | > 20 | 0.622 | 0.691 | 0.709 | 7.74 |
| OCI-LY7 (B-cell lymphoma, suspension) | 0.627 | 1.26 | – | – | 0.901 | 6.36 | – | – | – | – | – | – |
| SU-DHL-10 (B-cell lymphoma, suspension) | 0.772 | 2.85 | 0.998 | > 30 | – | – | 0.924 | 14.7 | 0.49 | 0.302 | – | – |
| IM-95 (stomach, adherent) | 0.749 | 3.44 | – | – | – | – | 0.968 | > 20 | 0.446 | 0.226 | 0.955 | > 32 |
| NCI-H1915 (large cell lung carcinoma, adherent) | 0.809 | 5.31 | 0.986 | > 30 | – | – | 0.936 | > 20 | 0.815 | 2.87 | 0.94 | > 32 |
| OVCAR-3 (ovary, adherent) | 0.652 | 1.72 | 0.985 | > 30 | – | – | 0.987 | > 20 | 0.986 | > 5.12 | 0.86 | 31.3 |
| SK-CO-1 (large intestine, adherent) | 0.743 | 2.96 | 0.914 | > 30 | – | – | 0.968 | > 20 | 0.68 | 0.984 | 0.962 | > 32 |
